In assay [1] the test system is transgenic Brassica napus plants. Briefly: Dicamba tolerance in R0 Brassica napus, greenhouse. Conditions: R0 plants with one copy of the transgene; dicamba 1 lb ae/acre; 14 to 21 days. On the procedure: Transgenic Brassica napus plants were produced using three different plant transformation vectors each comprising a DNA construct containing one of three different CTPs operably linked to DMO operably linked to a promoter. Brassica napus variety 65037 Restorer line was used for Agrobacterium-mediated transformation and R0 plants were grown in the greenhouse. Unique events were screened for the copy number of the transgene. R0 plants with one copy of the transgene were selfed and R1 seed collected.
Dicamba tolerance was assessed using R0 plants with one copy of transgene with vector backbone or two copies of transgene. Dicamba tolerance was designated as dicamba injury of 20% or less under greenhouse conditions. R0 events in pots were divided into three groups and dicamba (Clarity®) was applied at one of three rates: (1) no dicamba, (2) 1 lb ae/acre dicamba (2× rate), or (3) 2 lb ae/acre dicamba (4× rate). Transgenic plants were sprayed and injury ratings were recorded 21 days later.
Dicamba tolerance was assessed on R0 plants with a one copy of the transgene. Plants were sprayed in the greenhouse with dicamba (Clarity) at 1 lb ae/acre (2× rate), and dicamba tolerance was determined 14 to 21 days later.

For assay [2], the system named is transgenic F1 maize plants expressing H_N10. As to the kind of experiment: F1 maize greenhouse S-3100 tolerance. In kind it is in vivo. Conditions: 40 grams/ha S-3100 at V3; rated seven days after treatment. On the procedure:
For maize in planta testing, maize (LH244) was transformed using Agrobacterium tumefaciens and standard methods known in the art. […] The plants were treated with 40 grams/ha S-3100 at the V3 growth stage and injury ratings were taken seven days after treatment.

For assay [3] the test system is unchanged. Briefly: Efficacy field trial of F1 maize containing PPO H_N10 (S-3100). The class given is in vivo. Here is the method: This F1 population was segregating (50% hemizygous and 50% null) and selection for transgenic plants was not conducted prior to injury ratings. The overall average injury ratings for such a population are expected to be higher than a homogenous transgenic population since it is difficult to discern non-transgenic plants from transgenic plants. The trials were conducted at two locations with two replicates and 3 treatments per construct. Non-transgenic maize plants were used as a negative control. The herbicide application treatments were as follows: Treatment 1 was 0.036 lb ai/acre S-3100 applied at V2 followed by (fb) V4 fb V8; Treatment 2: was 0.072 lb ai/acre S-3100 applied at V2 fb V4 fb V8; Treatment 3: was 0.144 lb ai/acre S-3100 applied at V2 fb V4 fb V8. Crop Injury Percent ratings were assessed at the V2 growth stage (CIPV2) and at the V4 growth stage (CIPV4) at 5 to 7 days after treatment (the error V2 and error V4 are half of the least significant difference (LSD)). The crop injury ratings were combined for both locations.

The mark [4] stands for this setting: Trt 1: 0.036 lb ai/acre S-3100 at V2 fb V4 fb V8.
The mark [5] stands for this setting: Trt 1: 0.036 lb ai/acre S-3100 at V2 fb V4 fb V8, segregating F1, 5 to 7 days after treatment.
[6] abbreviates: Trt 2: 0.072 lb ai/acre S-3100 at V2 fb V4 fb V8.
Where [7] appears, read: Trt 3: 0.144 lb ai/acre S-3100 at V2 fb V4 fb V8.

In the case of “RbcS (SEQ ID NO: 5): Ps.RbcS-3C chloroplast transit peptide, SEQ ID NO:5 (MASMISSSAVTTVSRASRGQSAAMAPFGGLKSMTGFPVRKVNTDITSITSNGGRVKC; listed as Pisum sativum) [reference compound]”, the “2X Tolerant events” value in assay [1] is listed as 13/17.

B1: Construct 6: maize construct: APG6 (SEQ ID NO:1) operably linked to PPO H_N10 (SEQ ID NO:43) (protein, listed as Arabidopsis thalinana, listed as Escherichia coli)
chain: MATATTTATAAFSGVVSVGTETRRIYSFSHLQPSAAFPAKPSSFKSLKLKQSARLTRRLDHRPFVVRCMKTLILFSTRDGQTREIASYLASELKELGIQADVANVHRIEEPQWENYDRVVIGASIRYGHYHSAFQEFVKKHATRLNSMPSAFYSVNLVARKPEKRTPQTNSYARKFLMNSQWRPDRCAVIAGALRYPRYRWYDRFMIKLIMKMSGGETDTRKEVVYTDWEQVANFAREIAHLTDKPTLK
Regarding B1, the “events producing highly tolerant plants (10% or less injury)” value in assay [2] is 13 out of 18. Also, the CIPV4 in assay [3] (setting [4]), in assay [3] (setting [6]) and in assay [3] (setting [7]) was 0% in each case. Further, the CIPV2 in assay [3] (setting [5]) was 37.5%; in assay [3] (setting [6]) it was 37.5%; in assay [3] (setting [7]), 50%.

B2: Construct 16: maize construct: 12G088600TP (SEQ ID NO:38) operably linked to PPO H_N10 (SEQ ID NO:43) (protein, listed as Gossypium raimondii, listed as Escherichia coli)
chain: MLNIAPSCVLASGISKPVTKMASTENKDDHSSAKRMKTLILFSTRDGQTREIASYLASELKELGIQADVANVHRIEEPQWENYDRVVIGASIRYGHYHSAFQEFVKKHATRLNSMPSAFYSVNLVARKPEKRTPQTNSYARKFLMNSQWRPDRCAVIAGALRYPRYRWYDRFMIKLIMKMSGGETDTRKEVVYTDWEQVANFAREIAHLTDKPTLK
For the molecule B2, the “events producing highly tolerant plants (10% or less injury)” value in assay [2] is recorded as “no events”. Further, the CIPV4 in assay [3] (setting [4]) was 98.5%; in assay [3] (setting [6]), 99.5%; in assay [3] (setting [7]) it was 99.5%. Besides, the CIPV2 in assay [3] (setting [5]) is 96.3%; in assay [3] (setting [6]), 99.5%; in assay [3] (setting [7]), 99.5%.

B3: APG6: Arabidopsis thaliana albino and pale green (APG6) chloroplast transit peptide, SEQ ID NO:1, tested linked to DMO or PPO (protein, listed as Arabidopsis thalinana)
chain: MATATTTATAAFSGVVSVGTETRRIYSFSHLQPSAAFPAKPSSFKSLKLKQSARLTRRLDHRPFVVRC
Consider B3, for which, in assay [1], the “2X Tolerant events” value was 13/31.

These data come from patent US10563220B2, “Compositions and methods for efficient targeting of transgenes” (priority 2015, dated 2020).
